By IC50 is meant the dose at which the fit gives 50% viability; fits outside the tested doses are given as limits. AUC, from the same fit, is the share of area under the viability curve across the 256-fold dose range: 1 means no effect, lower means more sensitive. For some assays here: A top dose marked as inferred is not printed in the source and was worked back from the curve model.
Key:
Test in all cases: Viability of human cancer cell lines after 72 h of drug (GDSC screen)
QL-XI-92 = compound: C=CC(=O)Nc1cc(NC(=O)c2ccc(C)c(NC(=O)c3ccno3)c2)cc(C(F)(F)F)c1 [QL-XI-92]; conditions: top dose 10.24 µM; top dose inferred
Protocol: (§1)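 Human cancer cell lines in 384-well plates, medium with 10% serum, drug for 72 h over a 256-fold dose range (nine 2-fold or five 4-fold steps up to the top dose). Adherent lines were fixed and stained with the nucleic acid dye Syto60, suspension lines read with resazurin; signal relative to control wells, capped at 0 and 100%. One two-parameter sigmoid per drug and line, fitted in a mixed model over all curves with the slope shared within a line.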

WHI-P97 = compound: COc1cc2ncnc(Nc3cc(Br)c(O)c(Br)c3)c2cc1OC [WHI-P97]; conditions: top dose 10.24 µM; top dose inferred
Protocol: as §1

EHT 1864 = compound: O=c1cc(CN2CCOCC2)occ1OCCCCCSc1ccnc2cc(C(F)(F)F)ccc12 [EHT 1864]; conditions: top dose 10 µM; top dose inferred
Protocol: as §1

AG-014699 = compound: CNCc1ccc(-c2[nH]c3cc(F)cc4c3c2CCNC4=O)cc1 [AG-014699]; conditions: top dose 5 µM; top dose inferred
Protocol: as §1

Vinorelbine = compound: CCC1=C[C@@H]2CN(C1)Cc1c([nH]c3ccccc13)[C@@](C(=O)OC)(c1cc3c(cc1OC)N(C)[C@H]1[C@@](O)(C(=O)OC)[C@H](OC(C)=O)[C@]4(CC)C=CCN5CC[C@]31[C@@H]54)C2 [Vinorelbine]; conditions: top dose 0.064 µM; top dose inferred
Protocol: as §1

Phenformin = compound: N=C(N)NC(=N)NCCc1ccccc1 [Phenformin]; conditions: top dose 4000 µM; top dose inferred
Protocol: as §1

S-Trityl-L-cysteine = compound: N[C@@H](CSC(c1ccccc1)(c1ccccc1)c1ccccc1)C(=O)O [S-Trityl-L-cysteine]; conditions: top dose 5.12 µM; top dose inferred
Protocol: as §1

XL-184 = compound: COc1cc2nccc(Oc3ccc(NC(=O)C4(C(=O)Nc5ccc(F)cc5)CC4)cc3)c2cc1OC [XL-184]; conditions: top dose 5.12 µM; top dose inferred
Protocol: as §1

Gefitinib = compound: COc1cc2ncnc(Nc3ccc(F)c(Cl)c3)c2cc1OCCCN1CCOCC1 [Gefitinib]; conditions: top dose 0.5 µM
Protocol: as §1

NU-7441 = compound: O=c1cc(N2CCOCC2)oc2c(-c3cccc4c3sc3ccccc34)cccc12 [NU-7441]; conditions: top dose 2 µM; top dose inferred
Protocol: as §1

| Cell Line | AUC (QL-XI-92) | IC50 (QL-XI-92) | AUC (WHI-P97) | IC50 (WHI-P97) | AUC (EHT 1864) | IC50 (EHT 1864) | AUC (AG-014699) | IC50 (AG-014699) | AUC (Vinorelbine) | IC50 (Vinorelbine) | AUC (Phenformin) | IC50 (Phenformin) | AUC (S-Trityl-L-cysteine) | IC50 (S-Trityl-L-cysteine) | AUC (XL-184) | IC50 (XL-184) | AUC (Gefitinib) | IC50 (Gefitinib) | AUC (NU-7441) | IC50 (NU-7441) |
| --- | --- | --- | --- | --- | --- | --- | --- | --- | --- | --- | --- | --- | --- | --- | --- | --- | --- | --- | --- | --- |
| P32-ISH (Burkitt lymphoma, suspension) | 0.817 | 4.02 µM | 0.987 | > 10.2 µM | 0.988 | > 10 µM | 0.995 | > 5 µM | 0.464 | 0.00326 µM | 0.958 | > 4000 µM | 0.744 | 1.28 µM | 0.88 | 3.12 µM | 0.989 | > 0.5 µM | 0.995 | > 2 µM |
| PF-382 (T-cell lymphoblastic leukaemia, suspension) | 0.878 | 8.16 µM | 0.981 | > 10.2 µM | 0.945 | > 10 µM | 0.986 | > 5 µM | 0.66 | 0.0104 µM | 0.538 | 314 µM | 0.643 | 0.752 µM | 0.886 | 4.4 µM | 0.977 | > 0.5 µM | 0.991 | > 2 µM |
| QIMR-WIL (acute myeloid leukaemia, suspension) | 0.789 | 4.37 µM | 0.915 | > 10.2 µM | 0.958 | > 10 µM | 0.984 | > 5 µM | 0.472 | 0.00336 µM | 0.669 | 728 µM | 0.65 | 0.824 µM | 0.914 | > 5.12 µM | 0.987 | > 0.5 µM | 0.976 | > 2 µM |
| REH (B-cell leukaemia, suspension) | 0.784 | 4.15 µM | 0.964 | > 10.2 µM | 0.987 | > 10 µM | 0.964 | > 5 µM | 0.586 | 0.00683 µM | 0.379 | 118 µM | 0.959 | > 5.12 µM | 0.86 | 4.03 µM | 0.959 | > 0.5 µM | 0.982 | > 2 µM |
| ROS-50 (B-cell leukaemia, suspension) | 0.861 | > 10.2 µM | 0.981 | > 10.2 µM | 0.979 | > 10 µM | 0.965 | > 5 µM | 0.918 | > 0.064 µM | 0.583 | 451 µM | 0.919 | > 5.12 µM | 0.95 | > 5.12 µM | 0.976 | > 0.5 µM | 0.983 | > 2 µM |
| RPMI-8402 (T-cell lymphoblastic leukaemia, suspension) | 0.874 | 7.31 µM | 0.948 | > 10.2 µM | 0.945 | > 10 µM | 0.991 | > 5 µM | 0.577 | 0.00625 µM | 0.432 | 169 µM | 0.602 | 0.581 µM | 0.875 | 3.68 µM | 0.989 | > 0.5 µM | 0.978 | > 2 µM |
| RPMI-8866 (chronic myeloid leukaemia, suspension) | 0.988 | > 10.2 µM | 0.917 | > 10.2 µM | 0.891 | > 10 µM | 0.946 | > 5 µM | 0.734 | 0.0175 µM | 0.352 | 100 µM | 0.902 | > 5.12 µM | 0.926 | > 5.12 µM | 0.892 | > 0.5 µM | 0.846 | 1.31 µM |

From the supplement of paper PMC4967469
